Scores whose standard error is large were omitted. The source holds two more conditions with little spread; they are left out. In variant names, del marks residues removed and ins residues inserted between the two positions. For part of these data: How much ogerin was present is not stated here.
B1: GPR68, Q15743 (parent)
chain: MGNITADNSSMSCTIDHTIHQTLAPVVYVTVLVVGFPANCLSLYFGYLQIKARNELGVYLCNLTVADLFYICSLPFWLQYVLQHDNWSHGDLSCQVCGILLYENIYISVGFLCCISVDRYLAVAHPFRFHQFRTLKAAVGVSVVIWAKELLTSIYFLMHEEVIEDENQHRVCFEHYPIQAWQRAINYYRFLVGFLFPICLLLASYQGILRAVRRSHGTQKSRKDQIQRLVLSTVVIFLACFLPYHVLLLVRSVWEASCDFAKGVFNAYHFSLLLTSFNCVADPVLYCFVSETTHRDLARLRGACLAFLTCSRTGRAREAYPLGAPEASGKSGAQGEEPELLTKLHPAFQTPNSPGSGGFPTGRLA

Key:
[1] = variants of: B1; assay: cAMP reporter score (Enrich2 score, wild type = 0); higher = more signal; HEK293T, FACS bins
[2] = variants of: B1; assay: surface expression score (Enrich2 score, wild type = 0); higher = more signal; HEK293T, FACS bins

Variant	cAMP reporter score ([1]; pH 5.5)	cAMP reporter score ([1]; pH 6, modulator: ogerin)	cAMP reporter score ([1]; pH 6.5, modulator: ogerin)	surface expression score [2]
Y320_P321insG	-0.408	-0.273	0.305	-1.51
MGNITADNSSMSCTIDHTIHQTLAPVVYVTVLVVGFPANCLSLYFGYLQIKARNELGVYLCNLTVADLFYICSLPFWLQYVLQHDNWSHGDLSCQVCGILLYENIYISVGFLCCISVDRYLAVAHPFRFHQFRTLKAAVGVSVVIWAKELLTSIYFLMHEEVIEDENQHRVCFEHYPIQAWQRAINYYRFLVGFLFPICLLLASYQGILRAVRRSHGTQKSRKDQIQRLVLSTVVIFLACFLPYHVLLLVRSVWEASCDFAKGVFNAYHFSLLLTSFNCVADPVLYCFVSETTHRDLARLRGACLAFLTCSRTGRAREAWPLGAPEASGKSGAQGEEPELLTKLHPAFQTPNSPGSGGFPTGRLA [Y320W]	1.18	1.03	-0.075	1.41
MGNITADNSSMSCTIDHTIHQTLAPVVYVTVLVVGFPANCLSLYFGYLQIKARNELGVYLCNLTVADLFYICSLPFWLQYVLQHDNWSHGDLSCQVCGILLYENIYISVGFLCCISVDRYLAVAHPFRFHQFRTLKAAVGVSVVIWAKELLTSIYFLMHEEVIEDENQHRVCFEHYPIQAWQRAINYYRFLVGFLFPICLLLASYQGILRAVRRSHGTQKSRKDQIQRLVLSTVVIFLACFLPYHVLLLVRSVWEASCDFAKGVFNAYHFSLLLTSFNCVADPVLYCFVSETTHRDLARLRGACLAFLTCSRTGRAREAVPLGAPEASGKSGAQGEEPELLTKLHPAFQTPNSPGSGGFPTGRLA [Y320V]	0.75	1.42	1.6	-0.089
